Assay results from PubChem BioAssay AID1347055 (National Center for Advancing Translational Sciences (NCATS), 2019).
Hit rate of the full screen: of about 54,000 compounds, about 120 (0.22%) were called active. This list was built around the results that the source calls inconclusive (neither active nor inactive); the mix of calls is not that of the screen. The call rests on the fitted dose curve; in most records, active means well fitted inhibition curve with a large enough effect; inconclusive means small, poorly fitted or top-dose-only effect, or effect the other way; inactive means flat fitted curve, though single readings scatter. No potency is given beside an inconclusive call; the fits are too rough.

These molecules were tested against Fumarate hydratase, mitochondrial (Homo sapiens) (UniProt P07954) (assay: Identification of activators of human fumarate hydratase by quantitative high-throughput screening). Settings: FH coupled MDH/diaphorase resazurin fluorescence, 15 min; activity change, negative = inhibition: at 79.9 µM (top of the series).
Source text: Fumarate hydratase (FH) is a metabolic enzyme that is part of the Krebs-cycle, and reversibly catalyzes the hydration of fumarate to malate. Mutations of the FH gene have been associated with fumarate hydratase deficiency (FHD), hereditary leiomyomatosis, renal cell cancer (HLRCC), and other diseases. Currently there are no high-quality small molecule probes for studying human fumarate hydratase. To address this, we developed a quantitative high throughput screening (qHTS) FH assay and screened a total of 57,037 compounds in dose-response. While no inhibitors of FH were confirmed, a series of phenyl-pyrrolo-pyrimidine-diones (12 compounds) were identified as activators of human fumarate hydratase. […] The binding of two compounds from the series to human fumarate hydratase was confirmed by microscale thermophoresis. The low hit rate in this screening campaign confirmed that FH is a "tough target" to modulate, and the small molecule activators of human fumarate hydratase reported here may serve as a starting point for further optimization and development into cellular probes of human FH and potential drug candidates.
For primary high-throughput screen, 3 ul of FH solution (containing 13.33nM human fumarate hydratase, 13.33IU/ml malic dehydrogenase, 0.2mM NAD, 0.067mg/ml diaphorase and 0.067mM resazurin in the assay buffer (50 mM Tris pH 8.0, 5 mM MgCl2, 0.01% Brij 3) was dispensed into each well in a black solid bottom 1536-well assay plate (Greiner Bio-One) using a BioRAPTR FRD dispenser (Beckman Coulter, Brea, CA). A 1536-well pintool dispenser outfitted with 20 nl pins (Wako Automation, San Diego, CA) was used to transfer 20 nL of DMSO-solubilized compound (Cherrypick plates) to each 1536-well assay plate. Each compound was screened at five concentrations: 15 nM, 151 nM, 1.5 uM, 15.4 uM, 76.9 uM. Following compound transfer, plates were incubated in room temperature for 10 minutes. 1 uL of substrate solution containing fumaric acid (160 uM) was dispensed via BioRAPTR FRD to initiate the reaction. Plates were immediately transferred to a ViewLux microplate imager (PerkinElmer, Waltham, MA), and any resulting resorufin fluorescence was measured (exitation/emission, 525/598 nm) at 0 and 15 minutes. The exposure time is 1 second. Fluorescence from each well was normalized using enzyme-free and DMSO-treated control wells on each plate, and changes in fluorescence (delta RFU) were calculated using the difference in fluorescent signal for each well at 15 minutes versus 0 minutes.
Further: the screen sought activators but most active calls are inhibition curves; nearly all actives have a fitted effect of over 45% in size.
On the % scale 0 is the no-effect control and ±100 the full control effect; potency means the concentration at half of the fitted maximal effect; tags describe the fitted curve by direction and shape.

Sequence of UniProt P07954 (P07954 whole entry, looked up): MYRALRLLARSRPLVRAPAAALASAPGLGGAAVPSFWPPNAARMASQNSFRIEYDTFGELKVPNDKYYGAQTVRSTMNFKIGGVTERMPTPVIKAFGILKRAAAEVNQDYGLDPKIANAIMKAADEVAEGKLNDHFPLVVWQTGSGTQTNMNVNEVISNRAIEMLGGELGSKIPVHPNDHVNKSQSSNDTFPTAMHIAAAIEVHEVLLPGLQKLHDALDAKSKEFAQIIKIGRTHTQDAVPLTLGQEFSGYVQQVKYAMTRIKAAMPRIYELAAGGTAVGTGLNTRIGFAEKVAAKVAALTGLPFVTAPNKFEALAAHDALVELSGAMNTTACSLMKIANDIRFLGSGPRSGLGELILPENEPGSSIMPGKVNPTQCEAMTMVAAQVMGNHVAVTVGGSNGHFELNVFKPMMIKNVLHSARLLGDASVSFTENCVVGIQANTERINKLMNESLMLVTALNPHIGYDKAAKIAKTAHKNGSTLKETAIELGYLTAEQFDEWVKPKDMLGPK

Structure (SMILES)	Potency	activity change, negative = inhibition
Cc1cc(C)c(Cn2c3ccccc3c3cnn(CC(=O)NCc4cccs4)c(=O)c32)c(C)c1	inconclusive [inhibitor, partial curve, poor fit]	–
COc1ccccc1OC(C)C(=O)Nc1cccc(-c2nc3ccccc3s2)c1 (configuration not stated)	inconclusive [inhibitor, partial curve, poor fit]	–
C[C@H]1CC[C@@]2(OC1)O[C@H]1CC3C4CC[C@H]5C[C@@H](O)CC[C@]5(C)C4=CC(=O)[C@]3(C)[C@H]1[C@@H]2C (some centres not stated)	inconclusive [activator, partial curve, poor fit]	–
O=C(CSc1nccn1Cc1ccc2c(c1)OCO2)Nc1ccccc1F	–	inconclusive: -30.8% [inhibitor]
CCSc1ccccc1C(=O)N1CCN(c2nc3ccccc3s2)CC1	inconclusive [inhibitor, partial curve]	–
CCc1ccc(-c2nn(-c3ccc(OC)cc3)c3c2cnc2ccc(OC)cc23)cc1	inconclusive [inhibitor, partial curve, poor fit]	–
CCOc1ccc(C(=O)N2CC(=O)Nc3ccc(C)cc3C2c2ccc(F)cc2)cc1OCC (configuration not stated)	inconclusive [inhibitor, partial curve]	–
CCN(CC)Cc1cccc(/C=C/c2nc3ccc(F)cc3c(=O)n2-c2ccccc2Cl)n1	inactive	–
COc1ccc2nc3sc(C(=O)NCCc4ccc(Cl)cc4)cc3cc2c1	inactive	–
Cc1ccc(C)c(NC(=O)Nc2cc3c(cc2N2CCCCC2)n(C)c(=O)n3C)c1	inconclusive [inhibitor, partial curve, poor fit]	–
COC(=O)[C@H](NC(=O)c1cc(-c2ccccc2)nc2ccccc12)c1ccccc1	inconclusive [inhibitor, single point]	–
COc1ccc(CCNC(=O)c2ccc3c(c2)nc(C)n3-c2ccc(Br)cc2)cc1OC	inconclusive [inhibitor, partial curve, poor fit]	–
CC(C)CC(=O)OC[C@@]1(O)C[C@@]23CC[C@H]4[C@@](C)(CCC[C@@]4(C)C(=O)O)[C@@H]2CC[C@@H]1C3	inactive	–
Cc1ccccc1CNC(=O)CN1C(=O)CCCc2ccccc21	inconclusive [inhibitor, partial curve, poor fit]	–
COCCCNC(=O)c1c(NC(=O)Cc2coc3cc(C)ccc23)sc2c1CCCC2	inconclusive [inhibitor, single point]	–
Cc1ccc(CNc2nc(-c3ccco3)nn2C(=O)c2ccccc2[N+](=O)[O-])cc1	inconclusive [inhibitor, single point]	–
O=C1c2[nH]nc(-c3ccccc3O)c2C(c2cccc(OCc3ccccc3)c2)N1CCCO (configuration not stated)	inactive	–
CCc1ccc(C(c2ccccc2)c2c(C)[nH]c3ccccc23)s1 (configuration not stated)	inconclusive [inhibitor, single point]	–
COc1ccc(OCc2nc(-c3ccc(-n4cccc4)cc3)no2)cc1	inactive	–
Cc1cc(C)n(-c2nc(C)c(C)c(=O)n2CC(=O)Nc2ccc(OC(F)(F)F)cc2)n1	inconclusive [activator, partial curve]	–
Nc1c2ccccc2nc2ccccc12	inactive	–

Structure (SMILES)	Potency	activity change, negative = inhibition
CCSc1nc2c([nH]c3ccccc32)c(=O)n1-c1ccc(F)cc1	inactive	–
CC1(C)CCCC2(C)C1C(=O)C=C(C(=O)O)C2(O)C(=O)O (configuration not stated)	inactive	–
CN(C(=O)c1ccc2c(Cl)c3c(nc2c1)CCC3)c1ccccc1F	inconclusive [inhibitor, single point]	–
COc1c(Nc2ncc(Cl)c(N[C@H]3[C@H](C(N)=O)[C@@H]4C=C[C@@H]3C4)n2)ccc2c1CCC(N1CCOCC1)CC2 (some centres not stated)	inactive	–
CN[C@@H]1[C@@H](O)[C@@H](O[C@@H]2[C@@H](O)[C@H](O[C@H]3O[C@@H]([C@@H](C)NC)CC[C@H]3N)[C@@H](N)C[C@H]2N)OC[C@]1(C)O	inactive	–
Cc1nc2cc(-c3ccccc3)nn2c(C)c1CCC(=O)Nc1ccc(F)cc1F	inactive	–
COc1ccc(-c2nc(CSCC(=O)N3CCN(c4cc(Cl)ccc4C)CC3)c(C)o2)cc1	inconclusive [inhibitor, single point]	–
CCc1ccc(CNc2ccc3c(c2)ncn3C(C)(C)C)cc1	inconclusive [inhibitor, partial curve, poor fit]	–
CCOC(=O)c1ccc(N2C(=O)c3n[nH]c(-c4ccco4)c3C2c2cccc(OC)c2)cc1 (configuration not stated)	inconclusive [inhibitor, single point]	–
Cc1cc(CN2CCN(c3c(Br)cnc4nc(-c5ccc(N6CCN(C)CC6)cc5)[nH]c34)CC2)no1	inconclusive [inhibitor, partial curve]	–
CCc1ccc(CSc2nc(-c3ccccc3F)nc3c2Cc2c(CO)cnc(C)c2O3)cc1	inconclusive [inhibitor, partial curve, poor fit]	–
CCN(C(=O)C1CCN(S(=O)(=O)c2cc(Br)cc3c2N(C(C)=O)CC3)CC1)c1cccc(C)c1	inactive	–
COc1ccc(-c2cnc(C)o2)cc1S(=O)(=O)Nc1ccc(NC(C)=O)cc1	inconclusive [inhibitor, partial curve, poor fit]	–
CCNC(=O)c1ccc(NC(=O)N2CCCCc3ccccc32)cc1	inactive	–
COc1ccc(-c2nn3c(=O)cc(CN4CCN(C(=O)/C=C/c5ccccc5)CC4)nc3s2)cc1	inconclusive [inhibitor, full curve]	–
COc1cc(N2CCOCC2)ccc1Nc1ncc(F)c(Nc2ccccc2NS(C)(=O)=O)n1	inactive	–
Cc1cc(C)c(Nc2ncnc3c2cnn3C)c(C)c1	inactive	–
O=C(CN1c2ccccc2S(=O)(=O)c2ccccc21)Nc1cccc(C(F)(F)F)c1	inconclusive [inhibitor, single point]	–
COc1ccc(CCN2CCC(CNC(=O)c3cnn(-c4cccc(Cl)c4)c3C3CCN(C(=O)OC(C)(C)C)CC3)CC2)cc1	inactive	–
COC(=O)c1cccc(CN2C(=O)SC(Nc3ccc(C)cc3)C2=O)c1 (configuration not stated)	inconclusive [activator, partial curve, poor fit]	–
CCOc1cc(S(=O)(=O)NCCc2c(C)[nH]c3ccc(C)cc23)ccc1Br	inconclusive [inhibitor, single point]	–

Structure (SMILES)	Potency	activity change, negative = inhibition
Cc1ccc(NC(=O)CCS(=O)(=O)c2ccc3c(c2)oc(=O)n3C)c(Br)c1	inconclusive [inhibitor, single point]	–
CC(=O)c1cccc(NS(=O)(=O)c2cccc(S(=O)(=O)c3ccc(Br)cc3)c2)c1	inactive	–
Cc1ccc(CSc2nc3cccnc3n2Cc2ccc(C(=O)NC3CCCCC3)cc2)cc1	inconclusive [inhibitor, partial curve, poor fit]	–
Cc1ccc(CSc2nc(-c3ccccc3C)nc3c2Cc2c(CO)cnc(C)c2O3)cc1	inconclusive [inhibitor, single point]	–
CC(C)c1ccc(CNc2n[nH]c(-c3ccco3)n2)cc1	inactive	–
CCOc1ccc2oc(=O)cc(CN3CCN(c4ccccc4OC)CC3)c2c1	inactive	–
COc1cc(-c2nc3ccc(Cl)cn3c2Nc2ccc3c(c2)OCCO3)ccc1O	inconclusive [inhibitor, partial curve]	–
COc1ccc(-n2nc3c(N4CCCC(C(=O)NCCc5ccccc5C)C4)nnc(C)c3c2C)cc1 (configuration not stated)	inconclusive [inhibitor, partial curve, poor fit]	–
CCN(C(=O)c1cc2c(s1)-c1ccccc1OC2)c1cccc(C(F)(F)F)c1	inconclusive [inhibitor, partial curve, poor fit]	–
COc1ccc(NC(=O)Nc2nnc(N(CC(C)C)CC(C)C)s2)c(OC)c1	inconclusive [inhibitor, partial curve, poor fit]	–
O=C(Cn1c(-c2cccs2)cc2ccccc21)NCCCN1CCN(c2ccccc2F)CC1	inconclusive [inhibitor, partial curve, poor fit]	–
Cc1ccc(NC(=O)c2c(NC(=O)C(F)(F)F)sc3c2CCCCC3)cc1	inconclusive [inhibitor, partial curve]	–
COc1cccc(Nc2ncnn3ccc(CN4CC[C@@H](N)[C@H](O)C4)c23)c1	inconclusive [activator, full curve, poor fit]	–
COc1ccc2[nH]cc(CCN=C(NC(=O)c3ccccc3C)Nc3nc(C)cc(C)n3)c2c1	inconclusive [inhibitor, partial curve]	–
O=C(Nc1ccc(C(F)(F)F)cc1)C(Cc1ccccc1)n1cccc1 (configuration not stated)	inconclusive [inhibitor, partial curve]	–
CC(O)CCc1ccc(O[C@@H]2O[C@H](CO)[C@@H](O)[C@H](O)[C@H]2O)cc1 (some centres not stated)	inactive	–
Cc1ccc(NC(=O)C(Cc2ccccc2)NS(=O)(=O)c2ccc3c(c2)oc(=O)n3C)c(Cl)c1 (configuration not stated)	inconclusive [activator, partial curve, poor fit]	–
O=C(CSc1nnc(NC(=O)NC2CCCCC2)s1)Nc1ccccc1F	inactive	–
O=C(CC1N=C2c3ccccc3N=C(SCc3ccc(Cl)cc3)N2C1=O)NCCc1ccccc1 (configuration not stated)	inconclusive [inhibitor, partial curve, poor fit]	–
CCOc1ccc(C2c3c(-c4ccc(C)cc4)n[nH]c3C(=O)N2c2ccc(Cl)cc2)cc1 (configuration not stated)	inconclusive [inhibitor, partial curve, poor fit]	–
